Laboratory results from PubChem BioAssay AID624417 (National Center for Advancing Translational Sciences (NCATS), 2012).
The whole screen tested about 410,000 compounds, of which about 6,400 (1.6%) were called active. The inconclusive results got no clear call from the source; some entries with a clear call stand among them for comparison. Calls come from the whole dose curve; as a rule, active = well fitted inhibition curve with a large enough effect; inconclusive = small, poorly fitted or top-dose-only effect; inactive = no such curve, though single readings can be large or run the other way. No potency is given beside an inconclusive call; the fits are too rough.

Target: Glucagon-like peptide 1 receptor (Homo sapiens) (UniProt P43220)
Sequence of UniProt P43220 (P43220 whole entry, looked up): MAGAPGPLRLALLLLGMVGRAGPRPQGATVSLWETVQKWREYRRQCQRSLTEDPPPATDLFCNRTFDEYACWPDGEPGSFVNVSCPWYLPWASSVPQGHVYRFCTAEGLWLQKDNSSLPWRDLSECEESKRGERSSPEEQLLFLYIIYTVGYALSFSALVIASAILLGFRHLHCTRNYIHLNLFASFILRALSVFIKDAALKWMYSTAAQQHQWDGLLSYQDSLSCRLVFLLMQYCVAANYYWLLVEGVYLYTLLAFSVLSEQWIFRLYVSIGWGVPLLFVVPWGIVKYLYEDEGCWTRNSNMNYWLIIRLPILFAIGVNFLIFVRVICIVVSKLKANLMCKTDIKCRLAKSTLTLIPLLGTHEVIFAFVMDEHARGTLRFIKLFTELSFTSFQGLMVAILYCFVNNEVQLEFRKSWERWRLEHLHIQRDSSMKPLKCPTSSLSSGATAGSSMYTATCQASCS
Assay: qHTS of GLP-1 Receptor Inverse Agonists (Inhibition Mode); note: nearly all actives have a fitted effect of over 55% in size
Settings: HEK293 GLP-1R CRE-luciferase, luminescence, 24 h, GLP-1R form is constitutively active; series mostly up to 38.3 µM
Procedure, shortened: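 Cells are plated, allowed 12 hours at 37 deg C, then treated with compounds for 24 hr before luciferase detection reagent is added and luminescence is read after 12 min at room temperature. The HEK293 line carries constitutively active GLP-1R with a cAMP-responsive reporter.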
Potency is the fitted concentration of half-maximal effect; tags give direction and shape of the fitted curve.

Compound | Potency
Cc1cc(S(=O)(=O)n2ccnc2C(C)C)cc([N+](=O)[O-])c1C | inactive
c1ccc(-c2ccc(-c3cn4c(n3)CCC4)cc2)cc1 | inconclusive [inhibitor, partial curve]
CCOC(=O)CSc1nc(C(C)(C)C)nc2ccccc12 | inconclusive [inhibitor, single point]
CNS(=O)(=O)c1cn(CC(=O)N2CCN(c3ccc(C)cc3C)CC2)cc1S(=O)(=O)NC | inactive
CCN(CC(=O)Nc1c(F)cccc1F)C(=O)c1csc2c1CCCC2 | inconclusive [inhibitor, single point]
Cc1ccc(OCCNc2ccc(S(=O)(=O)N3CCCC3)cn2)cc1 | inconclusive [inhibitor, partial curve, poor fit]
Cc1ccc(CSCCNC(=O)c2ccc(Cl)c(S(=O)(=O)N3CCOCC3)c2)cc1 | inconclusive [inhibitor, single point]
Cc1ccc(CN(Cc2ccco2)C(=O)c2cccc(C)c2)cc1 | active: 11.2 µM
CNS(=O)(=O)c1cn(CC(=O)Nc2cccc(C(F)(F)F)c2)cc1S(=O)(=O)NC | inactive
COC(=O)c1ccc(C2C(Oc3ccccc3C)C(=O)N2CCc2ccc(OC)c(OC)c2)cc1 (stereo unspecified) | inconclusive [inhibitor, single point]
C[C@H](CO)N1C[C@H](C)[C@@H](CN(C)S(=O)(=O)c2cn(C)cn2)Oc2ccc(NS(=O)(=O)c3ccccc3)cc2C1=O | inactive
COc1cc2ncnc(NCCCN3CCOCC3)c2cc1OC | inactive
CN(c1ccccc1)C(CNS(=O)(=O)c1ccccc1)c1ccccc1 (stereo unspecified) | inconclusive [inhibitor, partial curve, poor fit]
CCOC(=O)c1oc2cc(O)ccc2c(=O)c1-c1ccccc1OC | inactive
O=C(/C=C/Sc1ncn[nH]1)c1ccc(Cl)cc1 | inconclusive [inhibitor, single point]
Cc1cc2c(cc1C)-n1nnnc1C(N1CCCC1)C(=O)N2 (stereo unspecified) | inactive
COc1cccc(-c2ncc3ccccc3c2COC(=O)c2ccc(F)cc2)c1 | active: 11.2 µM
CCC1(c2ccc(F)cc2)NC(=O)N(CC(=O)N2CCc3ccccc32)C1=O (stereo unspecified) | inconclusive [inhibitor, single point]
CC(C)NC(=O)C1C(c2ccccc2)=Nc2ccccc2N1C(=O)c1cc(Cl)cc(Cl)c1 (stereo unspecified) | inconclusive [inhibitor, single point]
CCOC(=O)C1=C(CN2CCc3ccccc32)NC(=O)NC1c1cc(C)ccc1C (stereo unspecified) | inconclusive [inhibitor, single point]
COc1ccc(-c2sc3ccccc3c2-c2ccc(OCCN3CCCCC3)cc2)cc1 | inconclusive [inhibitor, full curve, poor fit]
O=C(Nc1ccncc1)c1cc(-c2cccc(Br)c2)nc2ccccc12 | inconclusive [inhibitor, full curve, poor fit]

Compound | Potency
CC(C)C(NC(=O)c1ccc(C(C)(C)C)cc1)C(=O)Nc1ccc(N2CCOCC2)cc1 (stereo unspecified) | inconclusive [inhibitor, partial curve, poor fit]
CC(C)(C)OC(=O)N1C(=O)[C@](OC(=O)c2ccccc2)(c2ccc(F)cc2)c2ccccc21 | inconclusive [inhibitor, single point]
COc1cccc(OC)c1OCCNCC1CSc2ccccc2O1 (stereo unspecified) | inconclusive [inhibitor, partial curve, poor fit]
O=C(NCCc1ccccc1)C1Cc2c(-c3ccccc3)ccnc2O1 (stereo unspecified) | inconclusive [inhibitor, single point]
CC(C)N(Cc1nccn1C)C(=O)c1ccc2oc(CCCc3ccccc3)nc2c1 | inconclusive [inhibitor, partial curve, poor fit]
c1ccc(-c2nnc(SCC3CCCCO3)nc2-c2ccccc2)cc1 (stereo unspecified) | inconclusive [inhibitor, partial curve, poor fit]
CCC(C(=O)OC)n1nnc2sc(-c3ccccc3)cc2c1=O (stereo unspecified) | inactive
CC(C)Oc1cccc(C(=O)C2CCCN(C(=O)c3ccoc3)C2)c1 (stereo unspecified) | inconclusive [inhibitor, partial curve, poor fit]
O=C(O)CCc1nn2c3ccccc3nc2n(CCN2CCCCC2)c1=O | inactive
O=C(NC1CCSC1=O)c1ccc(Oc2ccc(F)cc2)nc1 (stereo unspecified) | inconclusive [inhibitor, partial curve, poor fit]
COc1ccc2c(c1)c(=O)c(C(=O)c1ccc(C)cc1)cn2Cc1ccccc1F | inconclusive [inhibitor, single point]
CCCCC1CC2=C(C(=O)OC(C)(C)O2)C(c2ccc(Cl)cc2)O1 (stereo unspecified) | inconclusive [inhibitor, partial curve, poor fit]
O=C(CSc1nc(-c2ccccc2Cl)ns1)c1ccc(Cl)cc1 | inconclusive [inhibitor, single point]
COc1cc(OC)cc(-c2nc3ccccc3c(=O)n2OC(=O)c2ccccc2C)c1 | inconclusive [inhibitor, partial curve, poor fit]
CC(Cc1cccs1)NC(=O)Nc1ccc(F)cc1 (stereo unspecified) | inconclusive [inhibitor, partial curve]
COC(=O)c1ccccc1NC(=O)c1nc(S(=O)(=O)Cc2ccccc2)ncc1Cl | inactive
O=C(/C=C/c1ccccc1)Nc1cccc(C(=O)O)c1 | inconclusive [inhibitor, full curve, poor fit]
Clc1cccc(OCCCCN2CCCCC2)c1 | inactive
CC(C)C[C@H]1CN=C(Nc2ccccc2)N1CC1CCC(C(C)(C)C)CC1 (stereo partly specified) | inconclusive [inhibitor, single point]
COc1ccc(C2c3c(-c4ccccc4O)n[nH]c3C(=O)N2CCc2ccccc2)cc1 (stereo unspecified) | inconclusive [inhibitor, single point]
CN(C)C(CNc1ccc(S(C)(=O)=O)cc1[N+](=O)[O-])c1ccccc1 (stereo unspecified) | inconclusive [inhibitor, partial curve]
CN(C)C(=O)CCc1ccc2c3c([nH]c2c1)[C@]1(CCC2CCCC2)[C@@H](C(=O)N2CCOCC2)C[C@H](CC(=O)NCCCn2ccnc2)C(=O)N1CC3 | inactive

Compound | Potency
COc1ccc(OC)c(-c2noc(N3CCN(c4cc(Cl)ccc4C)CC3)n2)c1 | inconclusive [inhibitor, single point]
N#C/C(=C\C=C\c1ccccc1[N+](=O)[O-])C(=O)NC1CCCCC1 | inconclusive [inhibitor, single point]
O=C1CCCN1CCCNc1ncnc2c1cnn2-c1ccc(Cl)cc1 | inactive
CCCCn1c2ccccc2c2cc(CC(N)=O)ccc21 | inconclusive [inhibitor, single point]
CCC/C=C(\CCC)C(NS(=O)(=O)c1cccc2cccnc12)c1ccc(C(=O)OC)cc1 (stereo unspecified) | inconclusive [inhibitor, partial curve, poor fit]
Cc1ccc(S(=O)(=O)NNC(=S)NC(=O)c2ccc([N+](=O)[O-])cc2)cc1 | inactive
CC1(C)CC(=O)C=C(c2ccc(I)cc2)C1 | inactive
N/C(=N\OC(=O)c1ccc2ccccc2c1)c1ccccc1Cl | inconclusive [inhibitor, single point]
Clc1ccc(CNCCCSc2ncccn2)cc1 | inactive
O=C(NCC1(N2CCOCC2)CCCCC1)c1cccc(S(=O)(=O)Nc2ccc(F)cc2)c1 | inconclusive [inhibitor, single point]
Cc1cc(C)cc(NC(=O)C(=O)NCC(c2cccnc2)N2CCc3ccccc32)c1 (stereo unspecified) | inconclusive [inhibitor, single point]
C=CCn1c(COc2cccc(C)c2C)nnc1SCC(=O)N1CCN(c2ccccc2)CC1 | inconclusive [inhibitor, partial curve, poor fit]
CCn1c(Sc2ccc([N+](=O)[O-])cn2)nnc1-c1ccco1 | inconclusive [inhibitor, partial curve, poor fit]
O=[N+]([O-])c1ccc(CN2CC(N3CCC(Cc4ccccc4)CC3)CS2(=O)=O)cc1 (stereo unspecified) | inconclusive [inhibitor, partial curve, poor fit]
Cc1ccc(NC(=O)c2nc(S(=O)(=O)Cc3cccc(C)c3)ncc2Cl)cc1 | inconclusive [inhibitor, single point]
CCCN(CCC)C(=O)c1c[nH]c2ccc(S(=O)(=O)Nc3cc(C)cc(C)c3)cc2c1=O | inconclusive [inhibitor, single point]
Cc1cccc(-c2nc(Nc3ccc(N4CCOCC4)cc3)c3ccccc3n2)c1 | inconclusive [inhibitor, full curve]
CCOC(=O)c1c(Nc2nc(C)c(C(=O)NC)s2)sc(C)c1C | inactive
COc1ccc(NC(=O)CN(C)C(=O)c2cccc(S(=O)(=O)N3CCCc4ccccc43)c2)cc1 | inconclusive [inhibitor, single point]
COc1cc(-c2nc3n(n2)C(c2ccc(F)cc2)C(C(N)=O)=C(C)N3)cc(OC)c1OC (stereo unspecified) | inactive
O=C(NC12CC3CC(CC(C3)C1)C2)N1CCC(n2nnc3ccccc32)CC1 | inactive
COc1ccccc1NC(=O)c1oc2ccccc2c1NC(=O)c1ccc(S(=O)(=O)N(C)C)cc1 | inactive
